Source: the supplement of paper PMC10126150
Sequences with one replicate were seen in a single cluster, so their values are uncertain.
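Also: ATP exposure 15 min at 22 °C before imaging.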

These sequences were tested on ATP (assay: switch fluorescence ratio, 500 uM ATP over buffer (Cy3 cluster intensity, sum of 5 cycles each) (fold (ratio)); higher = stronger signal-on switching upon ATP binding; sequences stand for … in TCGTCGGCAGCGTCAGATGTGTATAAGAGACAGTTTTTTTTTTTTTTTTTTTTTTTTT…TC). Conditions: aptamer strand: ATP DNA aptamer (quencher-CACCTGGGGGAGTATTGCGGAGGAAGG + anchor), 100 nM annealed; ATP concentration: 500 uM; one replicate.
Summary of the method: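 After annealing to 100 nM quencher-labelled ATP aptamer, Cy3-labelled switching-strand clusters on a modified Illumina MiSeq flow-cell were imaged in selection buffer. A second image followed after 15 min with 500 uM ATP at 22 °C, and five such buffer/ATP cycles were done, each separated by NaOH stripping and re-annealing. The fluorescence ratio, averaged per switch-domain sequence, is summed target-cycle over summed buffer-cycle Cy3 intensity per cluster, with clusters outside 100-1000 RFU excluded.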
In the case of GGAGTGCGCA, the switch fluorescence ratio is reported as 1.02. GGAGTGGGCA showed a switch fluorescence ratio of 1.04. Work on GGAGTTATTT yielded a switch fluorescence ratio of 0.962. GGATAAAAGA was tested, and the switch fluorescence ratio was 1.03. For GGATAAACGC, the switch fluorescence ratio was 1.01. For GGATAAACTT, the switch fluorescence ratio was 1. In the case of GGATAAGG, the switch fluorescence ratio is reported as 1.02. Sequence GGATACCTTG has a switch fluorescence ratio of 0.987. GGATACGGG showed a switch fluorescence ratio of 1.02. Work on GGATAGAAGG yielded a switch fluorescence ratio of 1.01. GGATAGACGT showed a switch fluorescence ratio of 1. Sequence GGATATAAGG has a switch fluorescence ratio of 1.06. GGATATACCC showed a switch fluorescence ratio of 1.08. GGATATAGGA gave a switch fluorescence ratio of 0.969. With GGATATTTTG the switch fluorescence ratio was 0.973. For GGATCAGACA, the switch fluorescence ratio was 0.986. GGATCATTAC showed a switch fluorescence ratio of 0.987. GGATCCTAGG showed a switch fluorescence ratio of 1.01. GGATCGATCG gave a switch fluorescence ratio of 1. GGATCGATCT showed a switch fluorescence ratio of 0.972. With GGATCGGGTG the switch fluorescence ratio was 1.02. Work on GGATCTCGAT yielded a switch fluorescence ratio of 0.976. With GGATCTGAGC the switch fluorescence ratio was 0.991. GGATCTTCCG showed a switch fluorescence ratio of 1.08. For GGATGACCGT, the switch fluorescence ratio was 0.978. GGATGACGGT was tested, and the switch fluorescence ratio was 0.977. GGATGAGCTT showed a switch fluorescence ratio of 0.964. For GGATGGTAAT, the switch fluorescence ratio was 1.02. For GGATGGTCAG, the switch fluorescence ratio was 0.995. For GGATGTAGCC, the switch fluorescence ratio was 1.01. GGATGTAGTT showed a switch fluorescence ratio of 1.06. In the case of GGATGTGTCA, the switch fluorescence ratio is reported as 1. In the case of GGATTAGGCA, the switch fluorescence ratio is reported as 1.04. Work on GGATTCGTAG yielded a switch fluorescence ratio of 0.986. Work on GGATTGCCCG yielded a switch fluorescence ratio of 1.01. GGATTGCGCC was tested, and the switch fluorescence ratio was 1.03. GGATTGGTTA was tested, and the switch fluorescence ratio was 0.965. For GGATTGTGTA, the switch fluorescence ratio was 1. GGATTGTGTC was tested, and the switch fluorescence ratio was 1.05. Work on GGATTTCTAA yielded a switch fluorescence ratio of 1. Sequence GGCAACCGGG has a switch fluorescence ratio of 1.05. GGCAAGGTGC was tested, and the switch fluorescence ratio was 1.09. GGCAATACCG gave a switch fluorescence ratio of 2.02. With GGCAATGTT the switch fluorescence ratio was 1.06. Sequence GGCACATATA has a switch fluorescence ratio of 1. GGCACCCGCA was tested, and the switch fluorescence ratio was 1.12. GGCACGATCT was tested, and the switch fluorescence ratio was 0.93. Sequence GGCACGGGCG has a switch fluorescence ratio of 0.998. Work on GGCACGGTGA yielded a switch fluorescence ratio of 1.03. Work on GGCAGCAAAG yielded a switch fluorescence ratio of 1.08. For GGCAGCCATG, the switch fluorescence ratio was 1.03. Sequence GGCAGCGAAT has a switch fluorescence ratio of 1.02. With GGCAGCTTGA the switch fluorescence ratio was 1.02. Work on GGCAGGAAAC yielded a switch fluorescence ratio of 0.934. Sequence GGCAGGCGGC has a switch fluorescence ratio of 1.05. With GGCAGGGAAA the switch fluorescence ratio was 1.01. GGCATAAGCC gave a switch fluorescence ratio of 1.03. With GGCATAATCA the switch fluorescence ratio was 0.992. GGCATCGGGG was tested, and the switch fluorescence ratio was 1.02. GGCATCTTG showed a switch fluorescence ratio of 0.977. GGCATGGGCG showed a switch fluorescence ratio of 1.03. In the case of GGCCAGAGTG, the switch fluorescence ratio is reported as 0.997. In the case of GGCCAGCATA, the switch fluorescence ratio is reported as 1.06. Sequence GGCCAGCTGT has a switch fluorescence ratio of 0.962. With GGCCATGAAA the switch fluorescence ratio was 1.01. With GGCCATTCCT the switch fluorescence ratio was 1.01. In the case of GGCCCACGA, the switch fluorescence ratio is reported as 1. With GGCCCGCCTG the switch fluorescence ratio was 1. Work on GGCCCGTAAC yielded a switch fluorescence ratio of 1.12. Work on GGCCCTATTT yielded a switch fluorescence ratio of 0.939. In the case of GGCCGCCTG, the switch fluorescence ratio is reported as 0.989. With GGCCGCTAAG the switch fluorescence ratio was 1.03. GGCCGGGGAA gave a switch fluorescence ratio of 1.04. Work on GGCCGGTCCC yielded a switch fluorescence ratio of 1.05. GGCCGTACTG was tested, and the switch fluorescence ratio was 1. For GGCCGTCCTT, the switch fluorescence ratio was 0.967. GGCCGTCTGA was tested, and the switch fluorescence ratio was 0.965. Work on GGCCGTCTGT yielded a switch fluorescence ratio of 0.992. In the case of GGCCTAAGAT, the switch fluorescence ratio is reported as 0.973. GGCCTGTAAT gave a switch fluorescence ratio of 1.04. Sequence GGCCTGTCGG has a switch fluorescence ratio of 1. GGCCTTGTT was tested, and the switch fluorescence ratio was 0.996. GGCGAAGGCT was tested, and the switch fluorescence ratio was 1.02. For GGCGAAGTGA, the switch fluorescence ratio was 1.01. With GGCGACGCCC the switch fluorescence ratio was 1.07. GGCGAGCCCG showed a switch fluorescence ratio of 0.998. Work on GGCGCAGATA yielded a switch fluorescence ratio of 1.04. With GGCGCCACAG the switch fluorescence ratio was 1.02. With GGCGCCTAGA the switch fluorescence ratio was 1.03. In the case of GGCGCGTCC, the switch fluorescence ratio is reported as 0.993. GGCGCGTTCT showed a switch fluorescence ratio of 1.03. In the case of GGCGCTAAA, the switch fluorescence ratio is reported as 0.982. GGCGCTTCGA was tested, and the switch fluorescence ratio was 0.99. In the case of GGCGCTTGCT, the switch fluorescence ratio is reported as 1.01. Sequence GGCGGAGGTG has a switch fluorescence ratio of 1.12. Work on GGCGGATACC yielded a switch fluorescence ratio of 1.05. With GGCGGCTAAG the switch fluorescence ratio was 1. Work on GGCGGGCAGG yielded a switch fluorescence ratio of 0.983. For GGCGGTGGTT, the switch fluorescence ratio was 1.04. In the case of GGCGGTGTA, the switch fluorescence ratio is reported as 0.999. Work on GGCGTCAAAA yielded a switch fluorescence ratio of 1.1. Sequence GGCGTCCAAG has a switch fluorescence ratio of 1.03. In the case of GGCGTCGGG, the switch fluorescence ratio is reported as 1.04. Sequence GGCGTCGTCT has a switch fluorescence ratio of 1.04. GGCGTGAGAC gave a switch fluorescence ratio of 1.11. Sequence GGCGTGAGCT has a switch fluorescence ratio of 1.02. In the case of GGCGTGTTCA, the switch fluorescence ratio is reported as 1. Work on GGCGTTTGGA yielded a switch fluorescence ratio of 1.01. GGCTAACAC was tested, and the switch fluorescence ratio was 1.31. In the case of GGCTAACTAG, the switch fluorescence ratio is reported as 0.97. GGCTAAGTTG gave a switch fluorescence ratio of 1.02. GGCTAGGGCA showed a switch fluorescence ratio of 0.979. GGCTATTAGG was tested, and the switch fluorescence ratio was 1.02. GGCTCACGTT gave a switch fluorescence ratio of 1.03. GGCTCATAGC gave a switch fluorescence ratio of 1.01. For GGCTCCACAG, the switch fluorescence ratio was 1.23. In the case of GGCTGACGTT, the switch fluorescence ratio is reported as 1.03. In the case of GGCTGCAGGA, the switch fluorescence ratio is reported as 0.994. With GGCTGCCTAA the switch fluorescence ratio was 0.95. GGCTGCTACG was tested, and the switch fluorescence ratio was 1.01. GGCTGCTCTA gave a switch fluorescence ratio of 0.981. For GGCTGTATGG, the switch fluorescence ratio was 0.97. GGCTGTCT showed a switch fluorescence ratio of 1. GGCTGTGCAA gave a switch fluorescence ratio of 1.33. For GGCTTAAGT, the switch fluorescence ratio was 0.989. GGCTTACCCT gave a switch fluorescence ratio of 1.03. With GGCTTCAAGG the switch fluorescence ratio was 0.957. Work on GGCTTCAGGT yielded a switch fluorescence ratio of 0.984. With GGCTTCATAG the switch fluorescence ratio was 0.994. In the case of GGCTTCCGTT, the switch fluorescence ratio is reported as 1.1. Work on GGCTTTCTGA yielded a switch fluorescence ratio of 1.02. In the case of GGCTTTTATA, the switch fluorescence ratio is reported as 0.992. GGGAAAAGCA was tested, and the switch fluorescence ratio was 0.983. Work on GGGAAAAGTC yielded a switch fluorescence ratio of 1.01. In the case of GGGAAAGCCT, the switch fluorescence ratio is reported as 1.12. Work on GGGAAATGCT yielded a switch fluorescence ratio of 1.01. In the case of GGGAACGACT, the switch fluorescence ratio is reported as 0.967. Sequence GGGAACTACA has a switch fluorescence ratio of 1.05. GGGAACTTTG showed a switch fluorescence ratio of 0.976. GGGAATATAT showed a switch fluorescence ratio of 0.888. For GGGAATCCC, the switch fluorescence ratio was 0.998. For GGGAATGTTG, the switch fluorescence ratio was 0.98. In the case of GGGAATTGTA, the switch fluorescence ratio is reported as 1.02. GGGAATTTAT gave a switch fluorescence ratio of 1.03. Work on GGGAATTTCC yielded a switch fluorescence ratio of 1.02. For GGGAATTTCT, the switch fluorescence ratio was 0.96. With GGGACACCTC the switch fluorescence ratio was 0.95. GGGACGAGCG was tested, and the switch fluorescence ratio was 1.23. In the case of GGGACGCCAG, the switch fluorescence ratio is reported as 1.03. For GGGACGGAG, the switch fluorescence ratio was 1.02. Work on GGGACGGTGG yielded a switch fluorescence ratio of 0.973. For GGGACTAGCG, the switch fluorescence ratio was 0.988. For GGGACTGAAA, the switch fluorescence ratio was 0.977.
